# Results from PubChem BioAssay AID686979 (National Center for Advancing Translational Sciences (NCATS), 2013).
# Hit rate of the full screen: of about 420,000 compounds, about 50,000 (12%) were called active. The shares of active, inactive and inconclusive entries below differ from those in the screen. The call rests on the fitted dose curve; in most records, active means well fitted inhibition curve with a large enough effect; inconclusive means small, poorly fitted or top-dose-only effect; inactive means flat fitted curve, though single readings scatter. Potencies of inconclusive entries are left out as doubtful fits.
# Experiment: qHTS for Inhibitors of human tyrosyl-DNA phosphodiesterase 1 (TDP1): qHTS in cells in presence of CPT; further: nearly all actives have a fitted effect of over 55% in size
# Conditions: chicken DT40 Tdp1-/-;hTDP1 cells + 20 nM CPT, ATP luminescence, 48 h; series mostly up to 46.2 µM
# How it was run: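 Chicken DT40 Tdp1-/- cells stably complemented with human TDP1 were seeded at 400 cells/well in medium containing 20 nM camptothecin, exposed to pin-transferred compounds, and grown at 37 °C for at least 48 hr. Viability was read as ATP luminescence.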
# Potency means the concentration at half of the fitted maximal effect; tags describe the fitted curve by direction and shape.
row,SMILES,Potency
1,COc1ccc(-n2c(=O)c(CCc3ccccc3)nc3cnc(N4CCNCC4)nc32)cc1,"inconclusive [inhibitor, single point]"
2,C=CCn1c2ccccc2c2nnc(SCC(=O)Nc3c(C)n(C)n(-c4ccccc4)c3=O)nc21,"inconclusive [inhibitor, single point]"
3,COc1cc(C(O)P(=O)(OCCC(C)C)c2ccc(N(C)C)cc2)cc(OC)c1OC (centres undefined),"inconclusive [inhibitor, single point]"
4,CC1(C)CC(=O)C2=C(C1)Nc1ccccc1NC2c1ccc(F)c(F)c1 (centres undefined),"inconclusive [inhibitor, partial curve]"
5,CC(=O)Nc1ccc(Oc2ccc3c(c2)C(=O)NC3=O)cc1,inactive
6,Nc1cccc(-c2nnc3n2CCCCC3)c1,"inconclusive [inhibitor, single point]"
7,O=C(NCCc1ccccc1)C1CCCN1C(=O)Nc1ccc(F)cc1 (centres undefined),"inconclusive [inhibitor, single point]"
8,COc1ccc(C(=O)Nc2ccc(S(=O)(=O)N3CCOCC3)cc2)cc1[N+](=O)[O-],inactive
9,Cc1ccc(NC(=O)c2ccc(NC(=O)C3CCCC3)cc2)c(C)c1,"inconclusive [inhibitor, single point]"
10,O=C(COc1ccccc1[N+](=O)[O-])c1ccccc1,active: 3.66 µM
11,COc1ccc(NC(=O)CN(C)C(=O)/C=C/c2cn(-c3ccccc3)nc2-c2ccc(F)cc2)cc1,"inconclusive [inhibitor, single point]"
12,Cc1ccc(S(=O)(=O)N(CC(=O)Nc2cccnc2)c2cccc(Br)c2)cc1,"inconclusive [inhibitor, single point]"
13,Cc1cccc(-n2cc(C(=O)O)c(=O)cc2C)c1,inactive
14,Cc1nc2ccccc2c2oc(C(=O)NCC3CCCO3)cc12 (centres undefined),"inconclusive [inhibitor, partial curve]"
15,CCOc1ccccc1NC(=O)Cn1c(=O)n(-c2ccccc2)c(=O)c2c1c1cc(C)ccc1n2C,inactive
16,C[C@H]1CN([C@@H](C)CO)C(=O)Cc2cc(NC(=O)CCC(F)(F)F)ccc2O[C@H]1CN(C)S(=O)(=O)c1ccc(F)cc1,active: 7.31 µM
17,CCOc1nc(C#N)nc(N(c2ccccc2)c2ccccc2)n1,inactive
18,Cc1ccccc1-c1cc(Nc2ccc(F)cc2)ncn1,"inconclusive [inhibitor, single point]"
19,COc1ccc(C(=O)NCC(=O)OCc2ccc([N+](=O)[O-])cc2)cc1,inactive
20,CCCCCCCCCc1conc1C(=O)CP(=O)(OC)OC,"inconclusive [inhibitor, single point]"
21,NS(=O)(=O)c1cccc(NS(=O)(=O)c2ccc(/C=C/C(=O)OCC(=O)c3ccccc3)cc2)c1,inactive
22,COc1ccc(NC(=O)CN2C(=O)CCc3cc(S(=O)(=O)N4CCOCC4)ccc32)c(OC)c1,inactive
23,Cc1cc(C(C)(C)C)oc1C(=O)N1CCN(C(=O)c2oc(C(C)(C)C)cc2C)CC1,active: 18.4 µM
24,CC1CCN(S(=O)(=O)c2ccc(NC(=O)CCN3C(=O)c4ccccc4C3=O)cc2)CC1,inactive
25,COc1cc(/C=C/C(=O)OCC(=O)Nc2ccc(S(N)(=O)=O)cc2)ccc1O,inactive

row,SMILES,Potency
1,COc1ccc(-c2cn3c(n2)sc2cc(C(=O)NCCCN4CCCCC4)ccc23)cc1,active: 1.03 µM
2,CCOc1ccc(N(C(C)C(=O)N/N=C(\C)C(C)(C)C)S(C)(=O)=O)cc1 (centres undefined),inactive
3,CCN(C(=O)CSc1nnc(-c2cc3occc3n2C)n1-c1ccccc1C)c1cccc(C)c1,"inconclusive [inhibitor, partial curve]"
4,O=C(c1cc2nc(-c3ccccc3)cc(C(F)(F)F)n2n1)N1CCCC1,inactive
5,Cc1nn(-c2ccccc2)c(C)c1NC(=O)COc1cc(F)ccc1[N+](=O)[O-],"inconclusive [inhibitor, single point]"
6,c1ccc2c(c1)Nc1nccnc1S2,"inconclusive [inhibitor, partial curve]"
7,CC(C)CCn1c(CN2CCN(c3cccc(Cl)c3)CC2)nc2c1c(=O)n(C)c(=O)n2C,"inconclusive [inhibitor, single point]"
8,COc1cc(N(C)C)c(OC)cc1/C=C1\Cc2ccccc2C1=O,"inconclusive [inhibitor, single point]"
9,O=C(Nc1ccc(C(=O)O)cc1)/C(=C\c1ccc2c(c1)OCO2)NC(=O)c1ccco1,inactive
10,CCNC(=O)c1c(C)oc2ncn(C)c(=O)c12,inactive
11,O=C(Nc1ccc(S(=O)(=O)Nc2cnc3ccccc3n2)cc1)c1cc(F)c(F)cc1Cl,"inconclusive [inhibitor, single point]"
12,CCc1ccc(CNC(=O)CSc2cc(=O)n(CC)c3ccccc23)cc1,active: 20.6 µM
13,O=C(Nc1ccc(Nc2ccccc2)cc1)c1ccc(Cl)cc1,active: 18.4 µM
14,c1ccc(NCc2nc3ccccc3n2CCOc2ccccc2)cc1,"inconclusive [inhibitor, single point]"
15,COc1ccc(N(CC(=O)N2CCN(Cc3ccccc3)CC2)S(C)(=O)=O)cc1Cl,"inconclusive [inhibitor, single point]"
16,O=C(CCc1ccccc1)Nc1cccc(-c2nnc(-c3ccco3)o2)c1,active: 25.9 µM
17,O=S(=O)(c1ccc(Cl)cc1)N1CCCC(c2nc(-c3ccc(F)cc3)no2)C1 (centres undefined),active: 14.6 µM
18,O=C1c2ccccc2C(=O)N1C1C(=O)N2CCSC12C(=O)OCc1ccccc1 (centres undefined),inactive
19,CCc1nn(CC(=O)N(CC)Cc2ccccc2)c(=O)c2cc3occc3n12,active: 23.1 µM
20,Cc1cc(C)cc(N(C(=O)c2ccco2)C(C(=O)NC2CCCC2)c2ccncc2)c1 (centres undefined),inactive
21,CC(C)(C)Cc1c(-c2ccc(Br)cc2)nc2ccc(Br)cn12,"inconclusive [inhibitor, single point]"
22,Cc1ccc(N2CCN(C(=O)c3ccccc3Br)CC2)c(C)c1,"inconclusive [inhibitor, partial curve]"
23,CCOc1ccccc1N1CCN(Cc2ccco2)CC1,inactive
24,CN(C)C(=S)NCc1ccccc1,active: 23.1 µM
25,CCCCS(=O)(=O)Nc1ccc2c(c1)ncn2C1CCCCC1,"inconclusive [inhibitor, single point]"

row,SMILES,Potency
1,CC(C)NC(=S)N/N=C/c1cccs1,active: 0.92 µM
2,Cc1c(Cl)cccc1NC(=O)C1CC2CCC1C2 (centres undefined),inactive
3,CC1=CCC[C@H]2[C@H](C1)C(=O)C[C@@H](C)[C@]2(C)CC/C(=C/CO)CO,"inconclusive [inhibitor, single point]"
4,CCOc1ccc(-n2c(=O)c3c4c(sc3n(Cc3cccc(C)c3)c2=O)CCCC4)cc1,inactive
5,CCOc1ccc(CC2NCCc3cc(OCC)c(OCC)cc32)cc1OCC (centres undefined),active: 3.66 µM
6,COc1ccc(CN(C(=O)CNC(=O)c2ccco2)C(C(=O)NCC2CCCO2)c2ccccc2)cc1 (centres undefined),inactive
7,Cc1ccccc1CN(c1ccc(C(=O)Nc2ccccc2C(=O)NCc2ccco2)cc1)S(C)(=O)=O,"inconclusive [inhibitor, single point]"
8,CCc1ccc(NS(=O)(=O)c2ccc3[nH]cc(C(=O)NCc4ccc(C)cc4)c(=O)c3c2)cc1,"inconclusive [inhibitor, single point]"
9,COCCn1cnc2c1c(=O)n(CC(=O)NCC(F)(F)F)c(=O)n2Cc1ccccc1,inactive
10,Cc1ccc2c(-c3ccc([N+](=O)[O-])cc3)cc(=O)[nH]c2c1,inactive
11,O=C(CSc1nc(=O)n(CCCN2CCOCC2)c2c1CCCC2)Nc1cccc(Cl)c1,inactive
12,CC(C)(C)c1ccc(OCCCC(=O)NC2=NCCS2)cc1,"inconclusive [inhibitor, single point]"
13,COc1ccc(NC(=O)CSc2nc3ccccc3c(=O)n2CCCC(=O)NCC2CCCO2)c(OC)c1 (centres undefined),"inconclusive [inhibitor, single point]"
14,O=C(C1CCCN1C(=O)c1cccs1)N1CCN(Cc2ccc3c(c2)OCO3)CC1 (centres undefined),inactive
15,CCOc1ccc2cc(C3CC(c4ccco4)=NN3S(C)(=O)=O)c(Cl)nc2c1 (centres undefined),"inconclusive [inhibitor, single point]"
16,COc1ccccc1N1N=C(c2ccc([N+](=O)[O-])cc2)CC1c1ccccc1 (centres undefined),"inconclusive [inhibitor, single point]"
17,O=C(Nc1ccc(Cl)c(Cl)c1)C1=Cc2ccccc2OC1,"inconclusive [inhibitor, single point]"
18,Cn1c(=O)c2cc(NC(=O)NCc3ccccc3)ccc2n1Cc1cccc(C(F)(F)F)c1,"inconclusive [inhibitor, partial curve]"
19,Cc1ccc(NS(=O)(=O)c2cccc(C(=O)NCC(c3cccs3)N3CCOCC3)c2)cc1 (centres undefined),inactive
20,COc1ccc(Nc2nc(-c3sc(C)nc3C)cs2)cc1,active: 1.16 µM
21,COCCNC(=O)/C(C#N)=C/c1c(N2CCN(c3cccc(Cl)c3)CC2)nc2c(C)cccn2c1=O,active: 16.4 µM
22,CCC(C(=O)NC1CCCC1)N(C(=O)Cn1nnc(-c2ccc(OC)c(OC)c2)n1)C1CCCCC1 (centres undefined),active: 13 µM
23,COc1cccc(NC(=O)c2ncc(Cl)c(Cl)c2Cl)c1,active: 7.31 µM
24,Cc1ccc(-c2cn3c(n2)sc2cc(C(=O)NC4CCCc5ccccc54)ccc23)cc1 (centres undefined),active: 13 µM
